# Test results as given in article PMC4336329 (PLoS ONE, 2015).
# In all, about 310,000 compounds went through this assay and about 2,200 (0.71%) showed an effect of 50% or more. Effects have a minus sign here. The list shows a part of the results.
# Target: human ether-à-go-go-related gene (hERG) potassium channel (human, UniProt Q12809)
# Assay: primary screen, population patch clamp on CHO cells stably expressing hERG
# Chain of human ether-à-go-go-related gene (hERG) potassium channel (Q12809 whole entry, looked up): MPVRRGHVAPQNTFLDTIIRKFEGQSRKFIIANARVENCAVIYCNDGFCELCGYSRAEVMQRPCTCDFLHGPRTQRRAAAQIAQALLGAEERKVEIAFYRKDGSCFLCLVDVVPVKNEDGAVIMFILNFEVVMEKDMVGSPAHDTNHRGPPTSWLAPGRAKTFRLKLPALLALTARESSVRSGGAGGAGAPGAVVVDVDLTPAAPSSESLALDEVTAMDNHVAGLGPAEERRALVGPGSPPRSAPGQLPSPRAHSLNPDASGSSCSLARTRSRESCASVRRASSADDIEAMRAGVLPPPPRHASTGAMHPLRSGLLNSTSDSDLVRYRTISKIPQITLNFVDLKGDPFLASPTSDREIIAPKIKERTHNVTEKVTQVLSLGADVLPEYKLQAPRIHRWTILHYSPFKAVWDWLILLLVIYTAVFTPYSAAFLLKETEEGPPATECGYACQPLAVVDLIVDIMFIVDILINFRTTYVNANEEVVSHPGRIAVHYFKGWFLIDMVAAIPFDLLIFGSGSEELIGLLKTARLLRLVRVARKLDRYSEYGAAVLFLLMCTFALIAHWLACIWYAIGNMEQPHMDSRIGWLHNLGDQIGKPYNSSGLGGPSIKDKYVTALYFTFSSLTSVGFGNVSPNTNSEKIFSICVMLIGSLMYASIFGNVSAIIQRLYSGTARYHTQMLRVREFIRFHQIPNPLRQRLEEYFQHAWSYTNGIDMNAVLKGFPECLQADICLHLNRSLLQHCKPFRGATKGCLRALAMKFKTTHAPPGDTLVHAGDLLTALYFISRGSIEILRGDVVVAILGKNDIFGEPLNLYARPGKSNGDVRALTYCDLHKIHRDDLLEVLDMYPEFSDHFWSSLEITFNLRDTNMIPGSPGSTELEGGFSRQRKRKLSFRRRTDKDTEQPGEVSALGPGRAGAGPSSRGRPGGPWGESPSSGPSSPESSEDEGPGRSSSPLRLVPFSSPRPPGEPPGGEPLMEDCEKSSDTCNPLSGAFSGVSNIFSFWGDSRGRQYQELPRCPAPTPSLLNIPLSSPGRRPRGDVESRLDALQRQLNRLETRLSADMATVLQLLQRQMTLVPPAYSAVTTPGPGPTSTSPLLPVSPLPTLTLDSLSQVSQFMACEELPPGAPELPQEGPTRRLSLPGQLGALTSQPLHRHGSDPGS
row,Structure (SMILES),"hERG current change (%, negative = inhibition) at 1uM [%]"
1,O=c1[nH]c2ccccc2nc1Cc1ccccc1,2.6
2,N#C/C(=C\c1ccccc1[N+](=O)[O-])C(=O)Nc1ccc(S(N)(=O)=O)cc1,5.69
3,COc1ccc(S(=O)(=O)N2CCCC(C(=O)NCc3ccccn3)C2)cc1 (stereo not shown),4.8
4,CCN1CCN(C(=O)Cc2c(C)n(C(=O)c3ccc(Cl)cc3)c3ccc(OC)cc23)CC1.Cl,9.01
5,CCCCCCC1(C)NC(=O)N(C(C)C(=O)Nc2ccc(N3CCOCC3)cc2)C1=O (stereo not shown),7.82
6,CCN(CC)S(=O)(=O)c1ccc(/C=C/C(=O)OCC(=O)NNC(=O)c2ccc(OC)cc2)cc1,9.94
7,CC(Sc1nnc(C2CC2)n1C1CC1)C(=O)c1ccc(F)cc1 (stereo not shown),9.04
8,O=C(O)CCCNC(=O)OCc1ccccc1,1.96
9,Fc1ccc(N=c2ssnc2Cl)c(F)c1,19
10,COC(=O)c1ccc(CNCC(O)COc2ccc(-c3ccccc3)cc2)cc1 (stereo not shown),14.3
11,CC(NC=C1C(=O)OC(C)(C)OC1=O)C(=O)O (stereo not shown),11.6
12,O=C(COc1ccc([N+](=O)[O-])cc1Cl)NCC1CCCO1 (stereo not shown),-9.4
13,CC(=O)Nc1ccc(NC(=O)c2ccc(COc3ccccc3)cc2)cc1,19.1
14,CSc1ncc(Cl)c(C(=O)Nc2cccc3ccccc23)n1,3.37
15,Cc1ccc(C(=O)OCc2ccc3c(c2)OCO3)cc1S(=O)(=O)N1CCCCC1,6.4
16,CCOc1ccc(C(=O)N/N=C/c2cc(Cl)ccc2[N+](=O)[O-])cc1,6.42
17,O=C(Cn1c(=O)c2cccn2c2ccccc21)NCCCN1CCCCC1,19.4
18,Cc1ccc(NC(=S)N2CCC(NC(=O)c3ccc(F)cc3)CC2)cc1C,11.1
19,CN1C(=O)C2(c3ccccc31)C1CCCC=C1C(C#N)=C(N)C2(C#N)C#N (stereo not shown),9.97
20,Cn1ncc(Cl)c1C(=O)NCc1ccc2c(c1)OCO2,16.3
21,COc1ccc(-c2cc(C(N)=O)nc(N3CCCCCC3)n2)cc1,14.1
22,COc1cc(C(=O)Nc2c(C(=O)O)[nH]c3ccccc23)cc(OC)c1OC,10.9

row,Structure (SMILES),"hERG current change (%, negative = inhibition) at 1uM [%]"
1,CCNc1nc(C)c2cc(Br)c(=O)n(CC)c2n1,20.2
2,CCN(CC(=O)Nc1c(F)cccc1F)C(=O)CN1C(=O)NC2(CCCC2)C1=O,21
3,O=C(CCn1c(=S)[nH]c2ccccc2c1=O)N1CCOCC1,8.04
4,CCOc1ccccc1C(=O)NN1C(=O)C2CCCCC2C1=O (stereo not shown),6.62
5,COc1ccc(/C=C/C(=O)NC(=S)Nc2ccc(C(=O)O)cc2)cc1,14.8
6,CCN1CCN(c2ncnc3ccc(Br)cc23)CC1,4.89
7,N#CCCN/N=C(\Cc1nc2ccccc2[nH]1)c1ccccc1,13.6
8,CCOC(=O)N1CCC(Nc2c(NCCCN(CC)Cc3ccccc3)c(=O)c2=O)CC1,11.4
9,O=C(c1cc(=O)[nH]c2ccccc12)N1CCc2ccccc2C1,8.57
10,O=C(COC(=O)CCNS(=O)(=O)c1cccc(C(F)(F)F)c1)NC(=O)NC1CCCCC1,4
11,CCOC(=O)N1CCC(NC(=O)c2cc3sccc3n2CC)CC1,12.3
12,CCN1CCN(CCCNC(=O)CCc2nc(-c3ccc(OC)cc3)no2)CC1,6.54
13,Cc1ccccc1CS(=O)(=O)CCC(=O)NCc1ccc(F)cc1Cl,-0.181
14,CC(C)=CCc1c(O)ccc2c1OC(c1ccc(O)c(O)c1)CC2=O (stereo not shown),11
15,COc1ccc(CCNC(=O)COC(=O)c2cnccn2)cc1,7.35
16,COc1cccc(CC(NC(C)=O)C(=O)NC2CCN(S(=O)(=O)c3ccc(NC(C)=O)cc3)CC2)c1OC (stereo not shown),9.39
17,CCCC(=O)Oc1ccc(C2NC(=O)c3ccccc3O2)cc1 (stereo not shown),12.9
18,Cc1csc(Nc2ccccc2)[n+]1C.[Br-],13.9
19,CCOC(=O)c1c(C)[nH]c(C)c1S(=O)(=O)NCC1CCN(Cc2ccccc2F)CC1,8.12
20,O=C(CSCc1ccccc1)NC1CCSC1=O (stereo not shown),2.98
21,CCOC(=O)N1CCC(NC(=O)CCc2nc(-c3ccccc3F)no2)CC1,10.8
22,CCOC(C(=O)OCCCN(CC)CC)(c1ccccc1)c1ccccc1.Cl,4.72

row,Structure (SMILES),"hERG current change (%, negative = inhibition) at 1uM [%]"
1,Nc1nc(SCC(=O)N2N=C(c3ccc(Cl)cc3)CC2c2ccco2)n[nH]1 (stereo not shown),6.73
2,COCCNc1nc(-n2nc(C)cc2C)nc2sc3c(c12)CCCC3,1.29
3,Clc1ccc(OCc2nnc(SCc3nnc(-c4ccccc4)o3)o2)c(Cl)c1,3.63
4,Cn1nc(C(=O)NCc2ccccc2)c2ccccc2c1=O,10.7
5,Cc1cc(N2CCN(C)CC2)nc2ccc(NC(=S)N3CCOCC3)cc12,5.36
6,Cc1ccccc1-n1c(O)c(C=Nc2ccc3c(c2)OCO3)c(=O)[nH]c1=O,10.3
7,CC(=O)c1ccc(N(C)C)cc1,13.2
8,O=C(NCCc1ccccn1)c1cccc(S(=O)(=O)N2CCc3ccccc32)c1,8.51
9,CC1CCCCN1C(=O)Cn1c(=O)n(C2CCCCC2)c(=O)c2ccccc21 (stereo not shown),2.61
10,S=C(NCc1ccccc1)NNc1ccccc1,10.4
11,COC(=O)Oc1nsnc1N1CCOCC1,14.4
12,CCCCc1cc(=O)oc2cc(C)cc(OCC(=O)Nc3cccnc3)c12,12.7
13,O=C(O)c1cc([N+](=O)[O-])c(Nc2cccc3ccccc23)c([N+](=O)[O-])c1,5.39
14,COc1ccc(/C=C2\Oc3cc(OCC(=O)N4CC(O)C[C@H]4C(=O)O)ccc3C2=O)cc1OC (stereo partly shown),16.3
15,O=C(COC(=O)Cc1ccc(F)cc1)NC(=O)c1ccccc1,18.2
16,COc1ccc(OC)c(N(CC(=O)NCCSC2CCCCC2)S(=O)(=O)c2ccccc2)c1,12.2
17,C/C=C(\C)C(=O)N[C@@H](c1ccccc1)[C@@H](O)C(=O)O[C@H]1C[C@@]2(O)[C@@H](OC(=O)c3ccccc3)C3[C@](C)(C(=O)[C@H](OC(C)=O)C(=C1C)C2(C)C)[C@@H](O)C[C@H]1OC[C@@]31OC(C)=O (stereo partly shown),1.79
18,O=C(O)Cc1coc2ccc3ccccc3c12,15
19,CCOCCCNC(=O)c1ccc2c(=O)n(CCCOCC)c(=S)[nH]c2c1,4.04
20,COc1ccc2cc1Oc1ccc(cc1)C[C@H]1c3cc(c(OC)cc3CCN1C)Oc1c(OC)c(OC)cc3c1[C@H](C2)N(C)CC3,9.67
21,CS(=O)(=O)N1CCc2ccccc2C1,3.71
22,CCN(CC(=O)NCc1cccs1)C(=O)c1ccc(S(=O)(=O)N(CC)c2ccccc2)cc1,-12.1

row,Structure (SMILES),"hERG current change (%, negative = inhibition) at 1uM [%]"
1,CCCc1c(C)[nH]c2nc3ccccc3n2c1=O,11.4
2,COc1ccc(N(CC(=O)NCCc2ccc(S(N)(=O)=O)cc2)S(=O)(=O)c2c(C)noc2C)cc1,17.4
3,COc1cc(/C=C/C(=O)O)cc(S(=O)(=O)N2CCCc3ccccc32)c1OC,15
4,Cc1ccccc1NC(=O)C1CCN(C(=O)N2CCOc3ccccc32)CC1,11.9
5,COc1ccc(Oc2nnnn2-c2ccccc2)cc1,0.277
6,Cc1ccc(NC(=O)c2cc3c(s2)CCC3)cc1S(=O)(=O)N1CCOCC1,5.84
7,Cc1ccc(-c2c(C(=O)N(C)Cc3ccccc3)oc(=O)c3ccccc23)cc1,12.2
8,C=CCSC1=N/C(=C\c2sccc2C)C(=O)S1,-3.89
9,CCCCCCCCCc1nc2sc3c(c2c(=O)n1NC(=O)c1ccc([N+](=O)[O-])cc1)CC(C)(C)OC3,-0.493
10,Cc1ccc(C(C)C)cc1S(=O)(=O)NCc1ccccn1,7.26
11,Cn1cnnc1SCC(=O)N1N=C2/C(=C/c3ccco3)CCCC2C1c1ccco1 (stereo not shown),-6.2
12,Cc1nc2nc[nH]n2c(=O)c1NS(C)(=O)=O,8.52
13,O=C(Cc1ccccc1)N1CCN(c2ncccn2)CC1,8.69
14,CCCCN(C(=O)C1=COCCO1)c1c(N)n(Cc2ccccc2)c(=O)[nH]c1=O,10.9
15,CCCCN(CC)CCCNC(=O)c1cn(CC(C)C)c(=O)c2c1c1ccccc1n2C,9.29
16,Cc1nnc(SCC(=O)c2ccc(Cl)cc2)n(N)c1=O,10.7
17,CCOc1cc2c(cc1OCC)-n1cccc1C(c1cc(OC)ccc1F)NC2.Cl (stereo not shown),12
18,Cc1cccc(CC2CC(=O)N(CCc3ccc4c(c3)OCO4)C2=O)c1 (stereo not shown),21.6
19,COC(=O)C(C(=O)OC)c1ccccc1[N+](=O)[O-],15
20,O=C(CSc1nnc(CNC(=O)c2cccs2)o1)Nc1ccccc1,3.29
21,CCN(CC)c1ccc(C(=S)NCc2ccccc2)cc1,0.779
22,O=C(/C=C/c1cn(CC(O)CN2CCOCC2)c2ccccc12)c1cccs1 (stereo not shown),8.14
